According to paper PMC6919601, “Identification of Plasmodium dipeptidyl aminopeptidase allosteric inhibitors by high throughput screening” (PLoS ONE, 2019):
About 230 (0.21%) of roughly 110,000 compounds showed an effect of 50% or more. Some of the results follow.

target: DPAP1 (Plasmodium falciparum, UniProt Q8IIJ9); assay: primary screen, percent inhibition; read by cleavage of a fluorogenic dipeptide substrate; higher = more effect of the substance; parameters: species or system P. falciparum D10 trophozoite lysates; single well
Sequence (Q8IIJ9 whole entry, looked up): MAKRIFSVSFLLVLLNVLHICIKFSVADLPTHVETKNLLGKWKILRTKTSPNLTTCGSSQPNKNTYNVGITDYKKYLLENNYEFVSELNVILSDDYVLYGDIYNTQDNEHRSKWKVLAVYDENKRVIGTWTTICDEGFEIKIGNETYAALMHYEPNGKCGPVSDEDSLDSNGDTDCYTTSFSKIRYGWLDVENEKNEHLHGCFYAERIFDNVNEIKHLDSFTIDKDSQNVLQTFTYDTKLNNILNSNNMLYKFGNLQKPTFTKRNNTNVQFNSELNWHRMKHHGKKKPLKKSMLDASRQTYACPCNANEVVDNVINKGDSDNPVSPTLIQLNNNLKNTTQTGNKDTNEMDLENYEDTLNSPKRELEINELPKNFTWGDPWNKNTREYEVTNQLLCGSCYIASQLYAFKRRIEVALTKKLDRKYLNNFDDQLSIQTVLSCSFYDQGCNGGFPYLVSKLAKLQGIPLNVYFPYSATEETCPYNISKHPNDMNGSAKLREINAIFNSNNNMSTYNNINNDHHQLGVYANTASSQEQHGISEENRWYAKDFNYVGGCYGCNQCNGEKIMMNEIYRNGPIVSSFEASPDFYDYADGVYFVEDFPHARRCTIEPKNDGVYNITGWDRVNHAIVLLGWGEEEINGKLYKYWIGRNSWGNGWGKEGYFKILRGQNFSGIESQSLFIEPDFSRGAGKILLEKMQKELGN
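Also: 30 min substrate incubation versus DMSO and 10 µM JCP410 controls.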

SMILES	% Inhibition @ 10 uM [%]
Cc1ccccc1NC(=O)C1C(=O)N(C)c2ccccc21 (stereo not shown)	0.924
CCOc1ccccc1C(=O)N(Cc1ccco1)Cc1ccc(C)o1	2.29
O=C1C=C(S(=O)(=O)O)c2ccccc2C1=O	-6.2
CN1CCN(CC(=O)N2c3ccccc3C=Cc3ccccc32)CC1	-6.36
CC(=O)Nc1ccc(NC(=O)CCc2ccccc2)cc1	0.907
CCN(CC)CCCOc1cc(C)cc(C)c1C	-3.94
O=CN1CCN(Cc2ccccc2Cl)CC1	-2.95
Cc1ccc(Cl)cc1NC(=O)COc1ccc(S(=O)(=O)NC2CCCCC2)cc1	8.09
CN(C(=O)c1cc2c(-c3ccccc3F)nn(C)c2s1)C1CCCCC1	-9.06
Cc1cc(NC(=O)C2(c3ccccc3)CCCC2)no1	-2.05
CC(=O)C1(C)OC(N)=C(C#N)C(c2ccccc2)C1(C#N)C#N (stereo not shown)	1.76
Cc1cc(C)n(CCc2nc3c4ccccc4nc(NCCc4ccccc4)n3n2)n1	2.6
COc1ccc(N(CC(=O)Nc2ccc3ccccc3c2)S(=O)(=O)c2ccccc2)c(OC)c1	5.9
O=S(=O)(c1cccc2nsnc12)N1CCN(Cc2ccc3c(c2)OCO3)CC1	10.1
CS(=O)(=O)N(CC(=O)NCc1ccccc1Cl)C1CCCCC1	-0.545
COc1cc2nc(C)[nH]c2cc1OC	1.13
Cc1ccc(Oc2ccc(NC(=O)CCC(=O)O)cc2)cc1	-3.5
Cc1ccc(Nc2nc(Cl)nc(NC(C)(C)C)n2)cc1	-0.744
Cc1cc(C)c(-c2c(NCc3ccco3)c(=O)c2=O)cc1C	-9.09
O=C(c1ccc(F)cc1)N1CCN(Cc2ccccc2Br)CC1	3.95
CCOc1ccc(/C=C(\C#N)c2nc(-c3ccc(OC)cc3)cs2)cc1	-3.03
Cc1oc(-c2ccc(C(=O)N3CCN(c4ncccn4)CC3)cc2)nc1CSc1ccccc1	5.71
Cc1ccc(CCN2CC(C(=O)N3CCC(Cc4ccccc4)CC3)CC2=O)cc1 (stereo not shown)	1.62
Cc1ccc(Cl)cc1-n1c(SCC(=O)NCc2ccco2)nc2nnc(C)c-2c1N	-0.458
CSc1nccc(Nc2ccccc2)c1C#N	-0.712

SMILES	% Inhibition @ 10 uM [%]
CCC(=O)c1cn(CC(=O)NCc2cccs2)c2ccccc12	2.1
Nc1ncnc2[nH]c(SCc3nc4ccccc4[nH]3)nc12	1.25
Cc1nc(N)sc1Cc1ccc(Oc2nc3c(c(=O)n(C)c(=O)n3C)n2C)cc1	8.64
COc1cccc(-c2nn(C)c3sc(C(=O)NCCN(C)C)cc23)c1	-0.499
CCCC(=O)NCCc1nc2ccccc2n1Cc1cc(C)ccc1C	-2.01
CC1(C)CC2(CCO1)Cc1ccccc1C2=O (stereo not shown)	-6.09
Cc1[nH]c2ccccc2c1CCNC(=O)C1CCCCC1	-1.52
Cc1noc(/C=C/c2cccs2)c1S(=O)(=O)N1CCCC(C(=O)Nc2cccnc2)C1 (stereo not shown)	0.0579
Cc1ccc(-n2nc3c(c2NC(=O)c2ccco2)CS(=O)(=O)C3)cc1	13.2
Cc1c(Br)c(C(F)(F)F)nn1CC(=O)N(C)C1CCCCC1	-5.13
CCOc1ccc(-n2cccc2/C=C2\C(=N)N3N=C(CC)SC3=NC2=O)cc1	-3.35
O=C1CC(N2CCCCC2)C(=O)N1c1ccc(S(=O)(=O)N2CCOCC2)cc1 (stereo not shown)	5.15
COc1cc(C=C2C(=O)N(C)C(=S)N(C)C2=O)ccc1O	-2.44
CCOC(=O)c1c(C)nc(Nc2nc3ccccc3o2)nc1CSc1nnnn1-c1ccccc1	1.72
O=C(Nc1cccc(O)c1)c1cnn2c1NC(c1cccs1)CC2C(F)(F)F (stereo not shown)	0.385
Cc1ccc(-c2csc(NC(=O)c3ccc(F)cc3)n2)cc1	-5.7
Cc1ccccc1N(CC(=O)Nc1ccccc1Br)S(=O)(=O)c1ccccc1	4.77
C=C(C)CN(CC)Cc1ccccc1[N+](=O)[O-]	-0.0494
Cc1nn(-c2ccccc2)c2sc(C(=O)NCc3ccco3)cc12	-0.436
COc1cccc(S(=O)(=O)NCc2ccccn2)c1	-8.23
CC(C)OCCCNC(=O)c1ccc2c(Cl)c3c(nc2c1)CCCC3	3.33
CCC(=O)N1c2ccccc2N=C2CC(C)(C)CC(O)=C2C1c1ccc(C#N)cc1 (stereo not shown)	5.24
COc1cc(C2C(C(C)=O)=C(O)C(=O)N2CCc2c[nH]c3ccccc23)ccc1O (stereo not shown)	-5.95
Cc1cc(/C=C2/NC(=O)N(Cc3ccc(F)cc3)C2=O)c(C)n1C(C)C	3.5
